Laboratory results taken from PubChem BioAssay AID1347417 (National Center for Advancing Translational Sciences (NCATS), 2020).
The whole screen tested about 120,000 compounds, of which about 5,300 (4.4%) were called active. The inconclusive results got no clear call from the source; some entries with a clear call stand among them for comparison. Calls come from the whole dose curve; as a rule, active = well fitted inhibition curve with a large enough effect; inconclusive = small, poorly fitted or top-dose-only effect; inactive = no such curve, though single readings can be large or run the other way. Potencies beside an inconclusive call are fits to weak or partial responses and may not hold up.

Experiment: qHTS Primary assay for Inhibitors of Plasmodium falciparum Dd2 growth in vitro; note: nearly all actives have a fitted effect of over 65% in size;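 for activity, negative = inhibition: plate controls were DMSO vehicle for no effect and reference drug for full effect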
Conditions: P. falciparum Dd2 growth, SYBR Green, 72 h; activity, negative = inhibition: at 28.9 µM (top of the series) unless noted; series mostly up to 28.9 µM
Outline: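 Readout: SYBR Green fluorescence, 485 nm excitation, 535 nm emission, after ~16 h lysis at 37C. Before that, Dd2-infected red cells (2.5% hematocrit) grew 72 h with compound, 29 uM top final concentration.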
Potency is the fitted concentration of half-maximal effect; tags give direction and shape of the fitted curve.

Structure (SMILES)	Potency	outcome	activity, negative = inhibition
COc1cccc(S(=O)(=O)N2CCC([C@H]3[C@@H](OC)C(=O)N3C(C)C)CC2)c1	inconclusive: 3.98 µM [inhibitor, partial curve, poor fit]		
Cc1cc(C(=O)N2CCC(Oc3ccccc3)C2)n(C)n1 (stereo not drawn)		inactive	
CC(=O)NC1CCN(Cc2cn(-c3ccc(C)cc3)nc2-c2cccc(C)c2)C1 (stereo not drawn)	inconclusive: 11.2 µM [inhibitor, single point]		
COc1ccccc1-c1noc(-c2ccc(N3CCOCC3)c([N+](=O)[O-])c2)n1	inconclusive: 20 µM [inhibitor, single point]		
CCN(CC)C(=O)N1CCC(c2noc(-c3ccccc3)n2)C1 (stereo not drawn)		inactive [at 5.79 µM]	
COc1ccccc1N1CCN(C(=O)c2cc3c(=O)n(C)c4ccccc4c3s2)CC1	inconclusive: 2 µM [inhibitor, full curve, poor fit]		
COc1ccc(-c2nc(SCC(=O)NC3CCCC3)c(-c3ccc(OC)cc3)[nH]2)cc1	inconclusive: 17.8 µM [inhibitor, single point]		
CN(Cc1ccccc1)Cc1cc(CC2(NCc3cccs3)COC2)no1	inconclusive: 31.6 µM [inhibitor, single point]		
CC1CCN(C(=O)c2ccc3c(c2)N(Cc2ccccc2F)C(=O)c2ccccc2S3(=O)=O)CC1	inconclusive: 17.8 µM [inhibitor, single point]		
COc1ccc(S(=O)(=O)n2nc(C)c(S(=O)(=O)N3CCCCC3)c2C)cc1	inconclusive: 1.78 µM [inhibitor, single point]		
O=C(C1CC1)N1CCCCCC1c1nnc(-c2ccccc2)o1 (stereo not drawn)	inconclusive: 3.98 µM [inhibitor, partial curve]		
O=C(c1ccccc1)N1CC(Oc2ccc3c(c2)OCO3)C1			inconclusive: -68.8% [inhibitor] [at 44.1 µM]
CN(Cc1ccccc1)c1ncccc1CNC(=O)c1ccnn1C			inactive: -12%
CCCC(=O)Nc1ccc2c(c1)nc(CN1CCN(C(=O)OCC)CC1)n2C(C)C			inactive: -6.58%
CCc1cccc(NC(=O)N2CCc3c(nc(-c4ccc(OC)cc4)[nH]c3=O)C2)c1		inactive	
CCCCC1CCC(C(=O)N2CC(=O)Nc3ccc(F)cc3C2c2ccc(F)cc2)CC1 (stereo not drawn)	inconclusive: 10 µM [inhibitor, single point]		
COc1ccc(CN2CC[C@H](c3nc4c(C(N)=O)cccc4[nH]3)C2)cc1	inconclusive: 31.6 µM [inhibitor, single point]		
CN(C)C[C@@H]1CN(Cc2ccncc2)C[C@H]1NC(=O)c1ccc(F)cc1			inactive: 36.4%
Cc1ccc(-n2nc(C)c([C@H]3C=C[C@@H](OC(=O)Nc4cccc(C(F)(F)F)c4)C3)c2C)cc1Cl	inconclusive: 12.6 µM [inhibitor, partial curve, poor fit]		
COCCN1C(=O)CCc2cc(NC(=O)c3c(F)cccc3F)ccc21			inactive: -22.4%
CC(C)C1=NOC2(CCN(Cc3c[nH]c4ccccc34)CC2)C1			inactive: -5.66%
Cc1cn2nc(C(=O)NCc3ccccc3C)cc2c(N(C)Cc2ccccc2)n1	inconclusive: 2.51 µM [inhibitor, partial curve, poor fit]		

Structure (SMILES)	Potency	outcome	activity, negative = inhibition
CN(C)Cc1nnc(C2CC(NC(=O)c3cn(-c4ccccc4)nn3)C2)n1C (stereo not drawn)	inconclusive: 3.16 µM [inhibitor, partial curve, poor fit]		
COc1cc(OC)cc(C(=O)N2CCC3(CC2)NC(=O)N(c2cccc(Cl)c2)N3)c1	inconclusive: 6.31 µM [inhibitor, partial curve, poor fit]		
CC1CCN(C(=O)c2cn3ccnc(-c4ccc(F)cc4)c3n2)CC1	inconclusive: 17.8 µM [inhibitor, single point]		
NC(=O)c1cccc(-c2ncc3c(n2)OCCN(Cc2ccc(F)cc2F)C3=O)c1	inconclusive: 0.447 µM [inhibitor, full curve]		
CCOc1ccccc1C(=O)N1CCC2(CC1)CN(c1ncccn1)CC2CO (stereo not drawn)	inconclusive: 8.91 µM [inhibitor, single point]		
CCC[C@H]1CN(CCS(C)(=O)=O)C[C@@H]1NC(=O)c1ncoc1CC			inactive: 0.757%
CCCN1CCN(CCCNC(=O)c2cc3c(Cl)nc4ccccc4c3s2)CC1	active: 10 µM		
CCc1nncn1C1CCN(S(=O)(=O)c2ccc(OC)cc2)CC1		inactive	
OCc1ccc(CN[C@H]2[C@H](O)[C@@H](N3CCC(Cc4ccccc4)CC3)[C@@H]3OC[C@H]2O3)o1		inactive [at 44.1 µM]	
CC(C)CCN1CCC(C2CCN(Cc3ccccn3)C2)CC1 (stereo not drawn)	inconclusive: 17.8 µM [inhibitor, single point]		
O=C([C@H]1C[C@H](Oc2cccnc2)CN1C(=O)Nc1cccc(F)c1)N1CCOCC1			inactive: -18.9%
COCCc1nncn1C1CCN(C(=O)c2ccc(Br)cc2)CC1	inconclusive: 5.62 µM [inhibitor, partial curve, poor fit]		
O=C(C1CCCC1)N1CCC2(CC1)C(=O)NCN2Cc1ccc(Cl)cc1		inactive	
O=C(c1c2c(nc3ccccc13)C(=O)N(C1CCCCC1)C2)N1CCN(c2ccc(F)cc2)CC1	inconclusive: 17.8 µM [inhibitor, single point]		
Cc1ccccc1N(C)C1CN(C(=O)c2ccccc2)C1	inconclusive: 12.6 µM [inhibitor, single point]		
O=C1Nc2ccccc2CN(Cc2ccccc2)C12CCNCC2	inconclusive: 7.08 µM [inhibitor, partial curve, poor fit]		
Cc1cccc(NC(=O)CN(c2ccc(C(C)C)cc2)S(=O)(=O)c2c(C)nn(C)c2C)c1C	inconclusive: 15.8 µM [inhibitor, single point]		
O=C1c2c(-c3nc(-c4ccsc4)no3)nnn2CCN1Cc1cccc(Cl)c1			inactive: -13.4%
Cc1ccc(-n2ncc3c(N4CCN(c5ccccc5)CC4)ncnc32)cc1C			inactive: 61%
CC(C)Cc1cc(C(=O)N2CCc3onc(-c4ccccc4F)c3C2)on1	inconclusive: 11.2 µM [inhibitor, single point]		
Cc1noc(C)c1S(=O)(=O)N(C)C1CCCc2ccccc21 (stereo not drawn)	inconclusive: 10 µM [inhibitor, partial curve, poor fit]		
